# The antibiotic and cytotoxicity screens of Wong et al. (2023)
# Some of the results follow.
# Test system: HSkMC (human skeletal muscle cells)
# Assay: cytotoxicity call (relative viability < 0.9)
# Settings: 10 µM
row,SMILES,cytotoxicity call
1,Cn1c(=O)c(=O)n(C)c2cc(S(=O)(=O)N3CCOCC3)ccc21,inactive
2,CCS(=O)(=O)Nc1ccc2c(c1)C(=O)N(C)C[C@@H](OC)[C@H](C)CN(Cc1ccccn1)[C@@H](C)CO2,inactive
3,COc1ccc(CCNC(=O)[C@@]2(Sc3ccc(C)cc3)CC(=O)N(C3CCCCC3)[C@@H]2c2ccc(CO)cc2I)cc1,inactive
4,C[C@@H]1CCCCO[C@@H](CN(C)C(=O)Cc2ccccc2)[C@@H](C)CN([C@@H](C)CO)C(=O)c2cc(NC(=O)Nc3ccc(F)cc3)ccc2O1,inactive
5,COCC#Cc1ccc2c(c1)O[C@@H](CN(C)C(=O)c1ccccc1)[C@@H](C)CN([C@H](C)CO)S2(=O)=O,inactive
6,C[C@H]1CN([C@@H](C)CO)C(=O)c2cc(NS(=O)(=O)c3ccccc3)ccc2O[C@@H]1CN(C)CC1CC1,inactive
7,CN(c1ccc(N)cc1[N+](=O)[O-])S(C)(=O)=O,inactive
8,C[C@H]1CN([C@@H](C)CO)C(=O)c2cccc(NC(=O)C3CCOCC3)c2O[C@H]1CN(C)C(=O)NC1CCCCC1,inactive
9,C[C@@H]1CN([C@@H](C)CO)S(=O)(=O)c2ccc(-c3ccncc3)cc2O[C@@H]1CN(C)S(=O)(=O)c1ccccc1F,inactive
10,Cc1ccc(S(=O)(=O)Nc2ccc3c(c2)CC(=O)N([C@H](C)CO)C[C@@H](C)[C@H](CN(C)C(=O)Nc2ccc(C(F)(F)F)cc2)O3)cc1,inactive
11,Cc1ccc(S(=O)(=O)Nc2ccc3c(c2)C(=O)N([C@@H](C)CO)C[C@@H](C)[C@@H](CN(C)C(=O)NC2CCCCC2)OCCCC[C@@H](C)O3)cc1,inactive
12,C[C@H]1CN([C@@H](C)CO)C(=O)c2cccc(NC(=O)Nc3ccccc3)c2O[C@H]1CN(C)C(=O)Nc1ccc(C(F)(F)F)cc1,inactive
13,C[C@@H]1CCCCO[C@@H](CN(C)C(=O)CCC(F)(F)F)[C@@H](C)CN([C@@H](C)CO)C(=O)c2cc(NS(=O)(=O)c3cccs3)ccc2O1,inactive
14,CO[C@@H](CN(C)C(=O)C1CCOCC1)[C@@H](C)CN(C(=O)Nc1ccc(C(F)(F)F)cc1)[C@H](C)CO,inactive
15,C[C@@H]1CN([C@H](C)CO)C(=O)c2cccc(NC(=O)C3CCOCC3)c2O[C@H]1CN(C)Cc1ccc(Oc2ccccc2)cc1,inactive
16,C[C@@H]1CN([C@@H](C)CO)C(=O)CCCn2nncc2CO[C@H]1CN(C)C(=O)Nc1ccc2c(c1)OCO2,inactive
17,C[C@@H]1CN([C@H](C)CO)C(=O)c2cc(NC(=O)NC3CCCCC3)ccc2O[C@H]1CN(C)S(=O)(=O)c1cn(C)cn1,inactive
18,COc1ccc(NC(=O)N(C)C[C@@H]2OCCCC[C@@H](C)Oc3ccc(NS(=O)(=O)c4ccc(C)cc4)cc3C(=O)N([C@@H](C)CO)C[C@@H]2C)cc1,inactive
19,C[C@H](CO)N1C[C@H](C)[C@@H](CN(C)S(=O)(=O)c2cccs2)OCCCC[C@H](C)Oc2ccc(NC(=O)c3ccccc3)cc2C1=O,inactive
20,CN(C)CC#Cc1ccc([C@@H]2[C@@H](CO)N3C(=O)CN(C(=O)CN(C)C)C[C@@H]23)cc1,inactive

row,SMILES,cytotoxicity call
1,CC(C)CN1C(=O)[C@@]2(Cc3ccccc31)c1ccccc1C(=O)N(Cc1ccccc1Cl)[C@H]2c1ccc(CO)cc1,inactive
2,C[C@@H]1CCCCO[C@H](CN(C)C)[C@H](C)CN([C@H](C)CO)C(=O)c2cc(NC(=O)Nc3ccc(C(F)(F)F)cc3)ccc2O1,inactive
3,C[C@@H]1CN([C@@H](C)CO)C(=O)c2cc(C#Cc3ccccn3)cnc2O[C@H]1CN(C)C(=O)CCN1CCCCC1,inactive
4,C[C@@H]1CCCCO[C@@H](CN(C)C(=O)c2ccccc2)[C@@H](C)CN([C@H](C)CO)C(=O)c2cc(NC(=O)Nc3ccc(F)cc3)ccc2O1,inactive
5,Cc1noc(C)c1NC(=O)Nc1cccc2c1O[C@@H](CN(C)Cc1ccc(Cl)c(Cl)c1)[C@H](C)CN([C@@H](C)CO)C2=O,inactive
6,CN1C(=O)COc2cc(N)ccc21,inactive
7,C[C@H](CO)N1C[C@H](C)[C@@H](CN(C)Cc2ccc(Cl)c(Cl)c2)OCCCC[C@H](C)Oc2ccc(NS(=O)(=O)c3ccccc3)cc2C1=O,inactive
8,CCS(=O)(=O)Nc1ccc2c(c1)C(=O)N(C)[C@H]1CC[C@H](CC(=O)N[C@@H]3CCN(Cc4ccccc4)C3)O[C@@H]1CO2,inactive
9,CC(C)NC(=O)N(C)C[C@@H]1Oc2c(NS(=O)(=O)c3ccccc3)cccc2C(=O)N([C@H](C)CO)C[C@@H]1C,inactive
10,CO[C@H]1CN(C)C(=O)c2cc(NS(=O)(=O)c3cn(C)cn3)ccc2OC[C@@H](C)N(Cc2cccc(F)c2)C[C@H]1C,inactive
11,COc1ccc(NC(=O)N(C)C[C@H]2Oc3c(NC(=O)Nc4cccc5ccccc45)cccc3C(=O)N([C@@H](C)CO)C[C@@H]2C)cc1,active
12,CC(=O)c1ccc[nH]1,inactive
13,C[C@@H]1CCCCO[C@H](CN(C)C(=O)c2ccccc2)[C@@H](C)CN([C@@H](C)CO)C(=O)c2cc(NC(=O)Nc3ccccc3)ccc2O1,inactive
14,Cc1ccc(S(=O)(=O)Nc2ccc3c(c2)C(=O)N([C@H](C)CO)C[C@@H](C)[C@@H](CN(C)S(=O)(=O)c2cccs2)O3)cc1,inactive
15,C[C@H](CO)N1C[C@H](C)[C@@H](CN(C)CC2CCCCC2)OCCCC[C@H](C)Oc2ccc(NC(=O)Nc3cccc4ccccc34)cc2C1=O,inactive
16,Cc1cc(C(=O)Nc2cccc3c2O[C@@H](CN(C)C(=O)Nc2ccc4c(c2)OCO4)[C@@H](C)CN([C@H](C)CO)C3=O)n(C)n1,inactive
17,C[C@@H]1CN([C@H](C)CO)C(=O)Cc2cc(NC(=O)Cc3cn(C)c4ccccc34)ccc2O[C@H]1CN(C)S(C)(=O)=O,inactive
18,C[C@H]1CC=CC[C@@H](c2cccc(Cl)c2)NC(=O)[C@H](Cc2ccccc2)N(C)C(=O)c2ccccc2O1,inactive
19,C[C@H](CO)N1C[C@H](C)[C@H](CN(C)Cc2ccc(C(=O)Nc3ccccc3N)cc2)Oc2ccc(NS(C)(=O)=O)cc2CC1=O,inactive
20,C[C@H](CO)N1C[C@H](C)[C@H](CN(C)Cc2ccc(Oc3ccccc3)cc2)Oc2ccc(NC(=O)Cc3cn(C)c4ccccc34)cc2C1=O,active
